These results are taken from paper PMC4336329 (PLoS ONE, 2015).

The structures appear in SMILES notation. The whole screen tested about 310,000 compounds, of which about 2,200 (0.71%) showed an effect of 50% or more. Effects have a minus sign here. Some of the results follow.

This assay deals with human ether-à-go-go-related gene (hERG) potassium channel (human, UniProt Q12809). Description: primary screen, population patch clamp on CHO cells stably expressing hERG.
Chain of human ether-à-go-go-related gene (hERG) potassium channel (Q12809 whole entry, looked up): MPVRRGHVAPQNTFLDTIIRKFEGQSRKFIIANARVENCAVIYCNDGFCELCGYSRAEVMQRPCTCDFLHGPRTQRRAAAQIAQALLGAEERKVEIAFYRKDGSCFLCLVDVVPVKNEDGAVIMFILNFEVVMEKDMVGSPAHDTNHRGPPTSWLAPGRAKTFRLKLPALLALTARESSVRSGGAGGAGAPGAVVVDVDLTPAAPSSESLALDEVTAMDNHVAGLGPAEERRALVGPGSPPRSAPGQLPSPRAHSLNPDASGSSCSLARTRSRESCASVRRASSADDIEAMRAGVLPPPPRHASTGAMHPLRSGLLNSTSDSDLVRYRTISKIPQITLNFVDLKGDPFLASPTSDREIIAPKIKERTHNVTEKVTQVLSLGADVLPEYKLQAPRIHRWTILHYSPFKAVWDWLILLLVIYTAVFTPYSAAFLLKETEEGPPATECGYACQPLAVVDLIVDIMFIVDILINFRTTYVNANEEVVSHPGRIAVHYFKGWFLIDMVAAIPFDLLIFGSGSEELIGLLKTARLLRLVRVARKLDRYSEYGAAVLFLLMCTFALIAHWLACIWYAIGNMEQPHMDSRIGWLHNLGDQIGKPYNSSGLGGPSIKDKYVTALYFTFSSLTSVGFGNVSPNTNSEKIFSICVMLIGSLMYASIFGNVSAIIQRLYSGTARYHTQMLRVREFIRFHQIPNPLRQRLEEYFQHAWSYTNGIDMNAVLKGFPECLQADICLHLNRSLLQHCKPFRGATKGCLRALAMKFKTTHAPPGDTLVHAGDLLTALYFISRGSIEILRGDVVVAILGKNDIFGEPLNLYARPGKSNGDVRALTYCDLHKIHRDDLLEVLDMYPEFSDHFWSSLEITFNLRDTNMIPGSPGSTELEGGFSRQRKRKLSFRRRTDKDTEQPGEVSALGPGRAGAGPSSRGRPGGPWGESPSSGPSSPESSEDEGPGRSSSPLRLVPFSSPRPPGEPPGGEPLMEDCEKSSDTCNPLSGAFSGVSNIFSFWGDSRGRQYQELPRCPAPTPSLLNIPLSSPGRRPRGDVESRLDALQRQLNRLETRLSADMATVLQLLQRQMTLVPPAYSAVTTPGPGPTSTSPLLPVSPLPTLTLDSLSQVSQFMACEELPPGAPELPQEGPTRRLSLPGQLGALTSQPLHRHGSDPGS
With `O=C1COc2ccc(C(=O)NCc3ccc4c(c3)OCO4)cc2N1`, the “hERG current change (%, negative = inhibition) at 1uM” value stood at 3.33%. With `CC(C)NC(=O)c1cc2c(C(F)(F)F)nn(C)c2s1`, the “hERG current change (%, negative = inhibition) at 1uM” value was 6.69%.

Take `CC(C)C(=O)NC(=S)Nc1ccc(S(=O)(=O)N2CCN(C)CC2)cc1`: the “hERG current change (%, negative = inhibition) at 1uM” value came out at 5.81%. Consider `Cc1cc(OC(=O)c2ccccc2Cl)ccc1N1C(=O)CCC1=O`, for which the “hERG current change (%, negative = inhibition) at 1uM” value is reported as -0.508%.

`COc1ccc(C(=O)NCC(=O)OCC(=O)N2CC(C)CC(C)C2)cc1` (centres unmarked): the “hERG current change (%, negative = inhibition) at 1uM” value was determined as 0.543%. For `CN1c2ccccc2C(O)=C(C(=S)Nc2ccc(Cl)cc2)S1(=O)=O` the value was -1.95%.

Regarding `Cc1ccccc1-c1nc2ccccc2c(=O)n1C1CCS(=O)(=O)C1` (centres unmarked), the “hERG current change (%, negative = inhibition) at 1uM” value is 13.5%. In the case of `CSc1ccc(C(=O)C2CCCN(C)C2)cc1` (centres unmarked), the “hERG current change (%, negative = inhibition) at 1uM” value is recorded as -3.51%. `CCOc1ccc(CCNC(=O)COC(=O)C2CCN(c3ccc(C(F)(F)F)cn3)CC2)cc1OCC`: the “hERG current change (%, negative = inhibition) at 1uM” value was determined as 8.9%. For the molecule `COc1cc(OC)cc(-c2nc3nc(C)c(CCC(=O)O)c(C)n3n2)c1`, the “hERG current change (%, negative = inhibition) at 1uM” value amounted to 4.63%.

Turning to `CCCc1nc(SCC(=O)N2CCCc3ccccc32)c2c(=O)n(C)c(=O)n(C)c2n1`, the “hERG current change (%, negative = inhibition) at 1uM” value is on record as 0.825%. Consider `Fc1ccc(CNc2nc3ccccc3n3nnnc23)cc1`, for which the “hERG current change (%, negative = inhibition) at 1uM” value worked out at 7.24%. For `Cc1ccnc(NS(=O)(=O)c2ccc(NC(=O)c3ccccc3F)cc2)n1` the value was 16.4%; for `COc1ccccc1-c1cc(C(=O)Nc2cccnc2)no1`, -3.46%; for `Cc1ccc2c(C(=O)CN3CCC4(CC3)OCCO4)c(C)[nH]c2c1`, 5.43%. With `S=c1[nH]nc(-c2cccc(Cl)c2)n1CCN1CCCCC1`, the “hERG current change (%, negative = inhibition) at 1uM” value came out at 8.03%. For `Cc1ccc(NP(=O)(Oc2ccccc2F)Oc2ccccc2F)cc1` the value was -1.69%. Turning to `O=[N+]([O-])c1ccc(N2CCN(C(=S)NC3CCCCC3)CC2)cc1`, the “hERG current change (%, negative = inhibition) at 1uM” value was -33.9%.

Take `O=C(N/N=C/c1ccc(OCC2COCCO2)cc1)c1ccc(Br)cc1` (centres unmarked): the “hERG current change (%, negative = inhibition) at 1uM” value was 8.38%.

Take `COc1ccc(-n2c(=O)c3ccccc3n(CC(=O)OCc3ccccc3)c2=O)cc1OC`: the “hERG current change (%, negative = inhibition) at 1uM” value came to 3.52%. Regarding `CNC(=S)Nc1cccc(-c2cnc3ccccc3n2)c1`, the “hERG current change (%, negative = inhibition) at 1uM” value was found to be 3.1%.

`S=C(NCCN1CCOCC1)Nc1ccc(Nc2ccccc2)cc1`: the “hERG current change (%, negative = inhibition) at 1uM” value is 5.73%.

Turning to `Cc1cccc(NC(=S)NC(=O)/C=C/c2ccccc2)n1`, the “hERG current change (%, negative = inhibition) at 1uM” value was found to be 15.1%. Turning to `CCOC(=O)Nc1ccc2c(CN3CCC(C(=O)OC)CC3)cc(=O)oc2c1`, the “hERG current change (%, negative = inhibition) at 1uM” value turned out to be 15.1%. With `COc1ccc(NC(=O)Cn2nnc(-c3ccccc3F)n2)cc1`, the “hERG current change (%, negative = inhibition) at 1uM” value is reported as 8.09%. Turning to `COc1ccc(CCNC(=O)COc2ccc(S(=O)(=O)NC(C)C)cc2)cc1OC`, the “hERG current change (%, negative = inhibition) at 1uM” value came to 9.7%.

For the molecule `CC(C)[C@H](NC(=O)N1CC(=O)Nc2ccccc21)C(=O)N[C@@H](Cc1ccccc1)C(=O)O`, the “hERG current change (%, negative = inhibition) at 1uM” value is 9.61%. For `COC(=O)CN1C(=O)[C@H]2[C@@H](c3ccc(C)o3)N3C(=O)CN(CCO)C(=O)[C@@]3(Cc3ccccc3)[C@H]2C1=O` the value was 1.88%; for `C(=N\Nc1ccccn1)/c1ccc2c(c1)OCCO2`, 10.2%. With `Fc1cccc(Cl)c1CSc1ccc(-c2ccco2)nn1`, the “hERG current change (%, negative = inhibition) at 1uM” value is reported as 6.26%.

`O=C(CSc1nc2ccccc2s1)Nc1ncccn1`: the “hERG current change (%, negative = inhibition) at 1uM” value is recorded as 19.2%. Regarding `O=C(Nc1ccc2[nH]ncc2c1)c1ccc(F)cc1`, the “hERG current change (%, negative = inhibition) at 1uM” value worked out at 15.2%. `O=C(Cn1ccc([N+](=O)[O-])n1)NCc1nc2ccccc2[nH]1`: the “hERG current change (%, negative = inhibition) at 1uM” value is 9.95%. For `O=C(NCCc1ccccc1)c1nccc2ccccc12` the value was 4.55%. For `COc1cc(Cl)c(C)cc1NC(=O)Cc1ccc(OC)c(OC)c1` the value was 7.76%.

`O=C(NCCCN1CCOCC1)C(=O)N/N=C/c1ccccc1Cl`: the “hERG current change (%, negative = inhibition) at 1uM” value amounted to 10.5%. For `CC(=O)N/C(=C\c1ccc(F)cc1)C(=O)OCc1ccccc1` the value was -8.34%.

On to `O=C(O)c1cccc(NS(=O)(=O)c2ccc(-c3ccc(S(=O)(=O)Nc4cccc(C(=O)O)c4)cc3)cc2)c1`, for which the “hERG current change (%, negative = inhibition) at 1uM” value amounted to 15.4%. Regarding `CN(CC(=O)Nc1ccc(Cl)c(C(F)(F)F)c1)C(=O)CCN1C(=O)C2CCCCC2C1=O` (centres unmarked), the “hERG current change (%, negative = inhibition) at 1uM” value was -8.71%. Take `Cc1ccc(Cn2c(=O)c3ccccc3n3c(CCC(=O)O)nnc23)cc1`: the “hERG current change (%, negative = inhibition) at 1uM” value was 9.33%.

Take `COc1ccc(S(=O)(=O)N(C)c2ccc(C(=O)NCc3ccco3)cc2)cc1OC`: the “hERG current change (%, negative = inhibition) at 1uM” value was found to be 0.0226%. Consider `Cc1ccc(OCC(=O)NC2CCS(=O)(=O)C2)c(C)c1` (centres unmarked), for which the “hERG current change (%, negative = inhibition) at 1uM” value came out at 10.3%. For `CN1CCS/C1=C/C=C1/SC(=S)N(Cc2ccccc2)C1=O` the value was 6.26%; for `Cc1ccc(N(CC(=O)NN=C2CCN(C)CC2)S(=O)(=O)c2ccc(C)cc2)cc1`, 8.98%.
